Experimental data as given in patent publication US20100247533A1, “TREATMENT WITH A HUMANIZED ANTI-EGFR IgG1 ANTIBODY AND IRINOTECAN” (priority 2009, published 2010).

Tested on: A549 lung adenocarcinoma xenografts
Assay: Animal survival study in vivo, A549 lung adenocarcinoma xenograft model
Set-up: species or system SCID beige mice
Protocol: Partially fucosylated GlycArt-mAb was provided as stock solution (c=11.3 mg/ml), in a buffer containing histidine, trehalose and polysorbate 20. The antibody stock solution was appropriately diluted in PBS prior to injection.
The antibody concentration was adjusted by dilution of the reconstituted stock solution prior to injection.
Irinotecan/CPT-11 (Campto®) was purchased as clinical formulation (20 mg/ml) from Pfizer Pharma GmbH, Karlsruhe, Germany. The antibody concentration was adjusted by dilution of the reconstituted stock solution prior to injection.
A549 human Non Small Cell Lung Cancer (NSCLC) cells were obtained from ATCC. The tumor cell line was routinely cultured in RPMI medium (PAA Laboratories, Austria) supplemented with 10% fetal bovine serum (PAA Laboratories, Austria) and 2 mM L-glutamine, at 37° C. in a water-saturated atmosphere at 5% CO2.
Passage 3 of A549 cells was used for in vivo injection. 2×10^6 cells in PBS were injected intravenously (i.v.).
Female SCID beige mice; age 7-8 weeks at arrival (purchased from Charles River, Sulzfeld, Germany) were maintained under specific pathogen-free conditions with daily cycles of 12 h light/12 h darkness according to committed guidelines (GV-Solas; Felasa; TierschG). […]
The primary parameter was survival. The data was statistically analyzed by log rank test.

B1: GlycArt-mAb: humanized anti-EGFR IgG1 antibody with heavy chain variable domain SEQ ID NO:38, light chain variable domain SEQ ID NO:39, human Ig gamma-1 constant region SEQ ID NO:40 (antibody, listed as Homo sapiens)
VH: QVQLVQSGAEVKKPGSSVKVSCKASGFTFTDYKIHWVRQAPGQGLEWMGYFNPNSGYSTYAQKFQGRVTITADKSTSTAYMELSSLRSEDTAVYYCARLSPGGYYVMDAWGQGTTVTVSS
VL: DIQMTQSPSSLSASVGDRVTITCRASQGINNYLNWYQQKPGKAPKRLIYNTNNLQTGVPSRFSGSGSGTEFTLTISSLQPEDFATYYCLQHNSFPTFGQGTKLEIKRT
chain: [about 350 residues with a human IgG1 Fc omitted]
modifications: partial fucosylation
In the case of B1, the “p (log rank test), survival compared to vehicle control” value (antibodies 25 mg/kg i.p. every seven days, irinotecan 20 mg/kg i.p. four times, single agents or combinations) is reported as 0.0005 and the “animal survival compared to vehicle control” value (single agents, antibodies 25 mg/kg i.p. every seven days (day 7-98), irinotecan 20 mg/kg i.p. day 7, 10, 14, 17, A549 cells injected i.v.) is reported as “significantly prolonged animal survival”.
